Experimental data as given in PubChem BioAssay AID1671193 (National Center for Advancing Translational Sciences (NCATS), 2021).
Several values for one entry are separate records, joined by “and”; a condition that tells them apart may be missing. Equal values may be shown once. Out of some 150,000 compounds screened, about 180 (0.12%) were called active. Inconclusive results, whose numbers are uncertain, are shown with a selection of clear calls. Calls follow the shape of the dose curve; as a rule, active = well fitted cell-killing curve with a large enough effect; inconclusive = small, poorly fitted or top-dose-only effect, or effect the other way; inactive = flat fitted curve, though single readings scatter. Where the call is inconclusive, the potency comes from a doubtful curve fit.

Assay: GF-AFC viability counterscreen for inhibitors of alpha-synuclein gene (SNCA) expression; also: nearly all actives have a fitted effect of over 30% in size;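 as to activity change, negative = cytotoxicity: 0% = DMSO-treated cells and -100% = medium-only wells without cells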
Details: HEK-293-SNCA-luc viability, GF-AFC fluorescence, 24 h; activity change, negative = cytotoxicity: at 57.1 µM (top of the series) unless noted
Method in brief: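 HEK-293-SNCA-luc cells (1500/well) plated 24 h, then exposed 24 h to a dilution series; GF-AFC added 30 min at 37C, fluorescence 405/540 nm; normalised to medium-only and DMSO wells, Hill fit.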
Potency is read from the fitted curve at half-maximal effect; tags tell the direction and shape of the fitted curve.

SMILES	activity change, negative = cytotoxicity	Potency
CC(C)(C)c1ccc(C(=O)NCc2nnc3c(-c4nc(C5CC5)no4)cccn23)cc1	inactive: -0.689%	–
CCOCCCNC(=O)C(c1ccc(C)cc1)N(Cc1cccs1)C(=O)c1ccc(NC(C)=O)cc1 (stereo not given)	–	inconclusive: 12.6 µM [cytotoxic, partial curve, poor fit]
C[C@H](C(=O)N(C)CCC#N)C1CC[C@@]2(C)Cc3sc(NC(=O)c4cccn4C)nc3[C@@H](C)[C@@H]2[C@H]1O (stereo not given in full)	inactive: 4.73%	–
CC(C)(C)CC(=O)N[C@H]1C[C@@H](Cc2cc(COc3ccccc3)on2)C1(C)C	–	inconclusive: 31.6 µM [cytotoxic, partial curve, poor fit]
COc1ccc(-c2cc3onc(-c4ccncc4)c3c(=O)n2C)cc1	–	inconclusive: 3.77 µM [rising, partial curve, poor fit]
Cc1cccc(N2CCN(C(=O)c3cnn(-c4cccc(Cl)c4C)c3C3CCNCC3)CC2)c1C	–	inconclusive: 15.8 µM [cytotoxic, single point]
COCCCNC(=O)C(NC(=O)c1cccc(C)c1)C1CCN(C(=O)c2ccccc2)CC1 (stereo not given)	–	inconclusive: 7.08 µM [cytotoxic, single point]
O=C(O)Cn1ccc2cc(OCc3cccc(-c4ccncc4)c3)cnc21	inactive: -3.46% [at 87.6 µM]	–
O=C(NC1CCN(c2cc(-c3ccccc3)[nH]n2)CC1)c1ccc(Cl)cc1	inactive: 10.3%	–
Cc1ccccc1NC(=O)C1CCc2nc(N3CCN(C(=O)C(C)C)CC3)sc2C1 (stereo not given)	–	inconclusive: 5.62 µM [cytotoxic, single point]
O=c1c(-c2cc(F)cc(F)c2)nc2cncnc2n1Cc1ccccc1Cl	–	inconclusive: 11.2 µM [cytotoxic, partial curve]
CC(C)c1noc(-c2cn(C3CCN(C(=O)c4cc(F)ccc4F)CC3)nn2)n1	inactive: 14.7%	–
COc1cccc(CNC(=O)c2cc3n(n2)CC(c2ccc4c(c2)OCO4)OC3)c1 (stereo not given)	inactive: 2.31%	–
O=C1NC(=NC2CCCC2)C2(CCCN(CC3CCCCC3)C2)N1c1cccnc1 (stereo not given)	inactive: -4.36%	–
COc1ccc(Cl)cc1NC(=O)CN1C(=O)COc2ccc(S(=O)(=O)NC3CCCC3)cc21	–	inconclusive: 12.6 µM [cytotoxic, partial curve, poor fit]
Cc1ccccc1CCC1CCCN(S(C)(=O)=O)C1 (stereo not given)	–	inconclusive: 3.16 µM [cytotoxic, single point]
CCc1nc(C)cc(-c2cc(OC)c(OC)c(OC)c2)n1	inactive: -3.44%	–
CC(C)c1noc(-c2cccn3c(CNC(=O)c4ccc(F)cc4Cl)nnc23)n1	inactive: -0.151%	–
Cc1cncn1CCc1nc2c3ccccc3nc(SCC(=O)Nc3cccc(Cl)c3)n2n1	–	inconclusive: 31.6 µM [cytotoxic, partial curve, poor fit]
CCOc1ccccc1NC(=O)c1cc2c(=O)oc3ccccc3c2s1	–	inconclusive: 7.08 µM [rising, single point]

SMILES	activity change, negative = cytotoxicity	Potency
COc1ccc(OC)c(NC(=O)CN2C(=O)COc3ccc(S(=O)(=O)NC4CCCC4)cc32)c1	–	inconclusive: 28.2 µM [cytotoxic, single point]
CNC(=O)[C@@H]1C[C@H](Oc2cccnc2)CN1C(=O)c1cn[nH]c1-c1ccc(OC)cc1	–	inconclusive: 3.55 µM [cytotoxic, partial curve, poor fit]
COCCN1C(=O)c2[nH]nc(-c3cc(C)ccc3O)c2C1c1ccc(C(C)C)cc1 (stereo not given)	–	inconclusive: 22.4 µM [cytotoxic, partial curve, poor fit]
CCC(CC)CN1C[C@]23C=C[C@H](O2)C(C(=O)N2CC(n4nc(C)cc4C)C2)C3C1=O (stereo not given in full)	–	inconclusive: 2.24 µM [cytotoxic, full curve, poor fit]
C[C@H]1[C@@H]2[C@@H](O)C([C@H](C)C(=O)NCc3cccnc3)CC[C@@]2(C)CC[C@@H]1NC(=O)c1ccccc1 (stereo not given in full)	inactive: -7.78%	–
COc1cc2cc(CN3CCC[C@H]3CO)c(-c3cccc(Cl)c3)nc2cc1OC	inactive: -11.4%	–
Cc1c(C(=O)N(Cc2ccccc2F)C2CCS(=O)(=O)C2)oc2ccc(F)cc12 (stereo not given)	–	inconclusive: 3.16 µM [cytotoxic, full curve, poor fit]
COc1cc(N2CCC(N3CCN(C)CC3)CC2)ccc1Nc1ncc(Cl)c(-c2c[nH]c3ccccc23)n1	–	inconclusive: 18.9 µM [cytotoxic, partial curve, poor fit]
N#Cc1ccc(CN2CCC3(CC2)CC(=O)c2ccc(Cl)cc2O3)cc1	inactive: -4.93%	–
c1ccc(Nc2cc3c(cn2)NCCN(Cc2ccccn2)C3)cc1	inactive: -9.09% [at 87.6 µM]	–
COc1ccc(F)cc1S(=O)(=O)NCCc1csc2nc(-c3cccc(C)c3)nn12	–	inconclusive: 14.1 µM [cytotoxic, partial curve]
COc1ccc(-c2[nH]nc3ncc(-c4ccc([S+](C)(=O)[O-])cc4)nc23)cc1F	–	inconclusive: 4.47 µM [cytotoxic, full curve, poor fit]
COC[C@@H]1CN(c2ncccn2)C[C@H]1C(=O)Nc1ccc(OC)nc1	inactive: 3.07%	–
CC(C)CNC(=O)c1cc(C2CC2)nc2onc(C3CCNC3)c12 (stereo not given)	inactive: -2.03%	–
COc1ccc(CCNC(=O)c2ccc3nnc(-c4ccc(F)cc4)n3c2)cc1	inactive: -1.92%	–
CC(C)c1nc(-c2ccc(OC3CCN(C(=O)CCc4nc5ccccc5[nH]4)C3)cc2)no1 (stereo not given)	inactive: -18.1%	–
CCN(CC)C(=O)CSc1nc(-c2ccccc2F)nc2c1Cc1c(CO)cnc(C)c1O2	–	inconclusive: 39.8 µM [cytotoxic, single point]
Cc1c(-c2ccc(Br)cc2)c(=O)oc2ccc(OC(=O)N3CCOCC3)cc12	–	inconclusive: 39.8 µM [cytotoxic, single point]
CC(C)c1nn(-c2c(Cl)cccc2Cl)c2nc(Cc3ccc(OCCO)cc3)[nH]c(=O)c12	–	inconclusive: 192 nM [cytotoxic, full curve, poor fit] and inconclusive: 150 nM [cytotoxic, full curve, poor fit]
O=C(c1ccc(F)cc1)N1c2nc(-c3ccco3)nn2C2(CCCCC2)[C@@H]2CCCC[C@@H]21	–	inconclusive: 12.6 µM [cytotoxic, partial curve, poor fit]
